# From the supplement of paper PMC8728848
# This is one part of the list.
# Legend:
# Assay in all cases: glycan array binding signal (z-score within array); higher = stronger binding
# Conditions in all cases: glycan notation: IUPAC condensed, linker removed
# [1] = target: GalNAc(b1-4)GlcNAc(b1-2)Man
# Procedure, shortened: (§1)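 Negative Z-scores can be read as non-binding. The Z-score is calculated within each array and then averaged across arrays of one protein sequence at different concentrations or buffers and across linkers. Arrays, 3228 in all, were curated from the Consortium for Functional Glycomics database and kept only where the protein sequence was available.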
# [2] = target: GalNAc(b1-4)GlcNAc(b1-2)Man(a1-3)[GalNAc(b1-4)GlcNAc(b1-2)Man(a1-6)]Man(b1-4)GlcNAc(b1-4)GlcNAc
# Procedure, shortened: as §1
# [3] = target: GalNAc(b1-4)GlcNAc(b1-3)GalNAc(b1-4)GlcNAc
# Procedure, shortened: as §1
# GalNAc(b1-4)GlcNAc6S = target: GalNAc(b1-4)GlcNAc6S
# Procedure, shortened: as §1
# GalNAc(b1-6)GalNAc = target: GalNAc(b1-6)GalNAc
# Procedure, shortened: as §1
# GalNAc3S(b1-4)GlcNAc = target: GalNAc3S(b1-4)GlcNAc
# Procedure, shortened: as §1
# GalNAc3S(b1-4)GlcNAc3S = target: GalNAc3S(b1-4)GlcNAc3S
# Procedure, shortened: as §1
# [4] = target: GalNAc3S(b1-4)[Fuc(a1-3)]GlcNAc
# Procedure, shortened: as §1
# GalNAc4S6S(b1-4)GlcNAc = target: GalNAc4S6S(b1-4)GlcNAc
# Procedure, shortened: as §1
# GalNAc6S(b1-4)GlcNAc = target: GalNAc6S(b1-4)GlcNAc
# Procedure, shortened: as §1
# Glc(a1-4)Glc = target: Glc(a1-4)Glc
# Procedure, shortened: as §1
# [5] = target: Glc(a1-4)Glc(a1-4)Glc(a1-4)Glc
# Procedure, shortened: as §1
# Glc(a1-6)Glc(a1-6)Glc = target: Glc(a1-6)Glc(a1-6)Glc
# Procedure, shortened: as §1
# [6] = target: Glc(a1-6)Glc(a1-6)Glc(a1-6)Glc
# Procedure, shortened: as §1
# Glc(b1-4)Glc = target: Glc(b1-4)Glc
# Procedure, shortened: as §1
# Glc(b1-6)Glc = target: Glc(b1-6)Glc
# Procedure, shortened: as §1
# GlcA(b1-3)Gal = target: GlcA(b1-3)Gal
# Procedure, shortened: as §1
# GlcA(b1-3)GlcNAc = target: GlcA(b1-3)GlcNAc
# Procedure, shortened: as §1
# GlcA(b1-6)Gal = target: GlcA(b1-6)Gal
# Procedure, shortened: as §1
# [7] = target: GlcA3S(b1-3)Gal(b1-4)GlcNAc(b1-2)Man
# Procedure, shortened: as §1
# [8] = target: GlcA3S(b1-3)Gal(b1-4)GlcNAc(b1-3)Gal(b1-4)Glc
# Procedure, shortened: as §1
# [9] = target: GlcNAc(a1-3)Gal(b1-4)GlcNAc
# Procedure, shortened: as §1
# [10] = target: GlcNAc(a1-4)Gal(b1-3)GlcNAc
# Procedure, shortened: as §1
# [11] = target: GlcNAc(a1-4)Gal(b1-4)GalNAc
# Procedure, shortened: as §1
# [12] = target: GlcNAc(a1-4)Gal(b1-4)GlcNAc
# Procedure, shortened: as §1
# [13] = target: GlcNAc(a1-4)Gal(b1-4)GlcNAc(b1-3)Gal(b1-4)Glc
# Procedure, shortened: as §1
# [14] = target: GlcNAc(a1-4)Gal(b1-4)GlcNAc(b1-3)Gal(b1-4)GlcNAc
# Procedure, shortened: as §1
# [15] = target: GlcNAc(a1-4)Gal(b1-4)GlcNAc(b1-3)Gal(b1-4)GlcNAc(b1-3)Gal(b1-4)GlcNAc
# Procedure, shortened: as §1
# [16] = target: GlcNAc(a1-4)Gal(b1-4)GlcNAc(b1-3)Gal(b1-4)[Fuc(a1-3)]GlcNAc(b1-3)Gal(b1-4)[Fuc(a1-3)]GlcNAc
# Procedure, shortened: as §1
# [17] = target: GlcNAc(a1-6)Gal(b1-4)GlcNAc
# Procedure, shortened: as §1
# [18] = target: GlcNAc(b1-2)Gal(b1-3)GalNAc
# Procedure, shortened: as §1
# [19] = target: GlcNAc(b1-2)Man(a1-3)[GlcNAc(b1-2)Man(a1-6)]Man(b1-4)GlcNAc(b1-4)GlcNAc
# Procedure, shortened: as §1
# [20] = target: GlcNAc(b1-2)Man(a1-3)[GlcNAc(b1-2)Man(a1-6)]Man(b1-4)GlcNAc(b1-4)[Fuc(a1-6)]GlcNAc
# Procedure, shortened: as §1
# [21] = target: GlcNAc(b1-2)Man(a1-3)[GlcNAc(b1-4)][GlcNAc(b1-2)Man(a1-6)]Man(b1-4)GlcNAc(b1-4)GlcNAc
# Procedure, shortened: as §1
# [22] = target: GlcNAc(b1-2)Man(a1-3)[GlcNAc(b1-4)][GlcNAc(b1-2)Man(a1-6)]Man(b1-4)GlcNAc(b1-4)[Fuc(a1-6)]GlcNAc
# Procedure, shortened: as §1
# [23] = target: GlcNAc(b1-2)[GlcNAc(b1-4)]Man(a1-3)[GlcNAc(b1-2)Man(a1-6)]Man(b1-4)GlcNAc(b1-4)GlcNAc
# Procedure, shortened: as §1
# [24] = target: GlcNAc(b1-2)[GlcNAc(b1-4)]Man(a1-3)[GlcNAc(b1-4)][GlcNAc(b1-2)Man(a1-6)]Man(b1-4)GlcNAc(b1-4)GlcNAc
# Procedure, shortened: as §1
binder,measurement,setting,value
SP16663B-bot-321-25-321 (Bacteroides ovatus) (protein) DDDDEVTMNSKFYLSTKVFPVDSYEASLSVILKDNSVVVNELQPNYRFVACATERLSKDVKITADSDDNLVSAYNKANDTEYNILPAENYSFTNKTVTIENGESVSGDSIKIELLNVGSLTTEGGYLLPVTISSIEGNNLDALSSNRGVVYLKIQNIHVNVESGQPAEGTLIADRSGWTVKVAPTTRGDAKNLIDGTNSDVARDGGAEYWLTVDIGKVQTLTGIRNKCYASSYSPTAVEVFTSSDGAKWKSIGAVTISKSGTQYIKFSKAVETRYLKYYVKQGPNTVSLTEFDLYAK,glycan array binding signal (z-score),[1],1.72
same,glycan array binding signal (z-score),[2],-0.015
same,glycan array binding signal (z-score),[3],-0.427
same,glycan array binding signal (z-score),GalNAc(b1-4)GlcNAc6S,-0.779
same,glycan array binding signal (z-score),GalNAc(b1-6)GalNAc,-0.325
same,glycan array binding signal (z-score),GalNAc3S(b1-4)GlcNAc,-0.25
same,glycan array binding signal (z-score),GalNAc3S(b1-4)GlcNAc3S,-0.087
same,glycan array binding signal (z-score),[4],0.251
same,glycan array binding signal (z-score),GalNAc4S6S(b1-4)GlcNAc,-0.392
same,glycan array binding signal (z-score),GalNAc6S(b1-4)GlcNAc,-0.428
same,glycan array binding signal (z-score),Glc(a1-4)Glc,0.248
same,glycan array binding signal (z-score),[5],-0.738
same,glycan array binding signal (z-score),Glc(a1-6)Glc(a1-6)Glc,0.136
same,glycan array binding signal (z-score),[6],-0.767
same,glycan array binding signal (z-score),Glc(b1-4)Glc,0.122
same,glycan array binding signal (z-score),Glc(b1-6)Glc,0.07
same,glycan array binding signal (z-score),GlcA(b1-3)Gal,0.235
same,glycan array binding signal (z-score),GlcA(b1-3)GlcNAc,0.051
same,glycan array binding signal (z-score),GlcA(b1-6)Gal,0.013
same,glycan array binding signal (z-score),[7],0.119
same,glycan array binding signal (z-score),[8],-0.498
same,glycan array binding signal (z-score),[9],-0.117
same,glycan array binding signal (z-score),[10],-0.06
same,glycan array binding signal (z-score),[11],-0.026
same,glycan array binding signal (z-score),[12],0.484
same,glycan array binding signal (z-score),[13],0.036
same,glycan array binding signal (z-score),[14],-0.401
same,glycan array binding signal (z-score),[15],-0.247
same,glycan array binding signal (z-score),[16],0.324
same,glycan array binding signal (z-score),[17],0.121
same,glycan array binding signal (z-score),[18],-0.084
same,glycan array binding signal (z-score),[19],-0.548
same,glycan array binding signal (z-score),[20],0.16
same,glycan array binding signal (z-score),[21],-0.155
same,glycan array binding signal (z-score),[22],-0.277
same,glycan array binding signal (z-score),[23],0.055
same,glycan array binding signal (z-score),[24],-0.175
